{
  "source": "patent US9809653B2",
  "about": "“Anti-LAMP1 antibodies and antibody drug conjugates, and uses thereof” (SANOFI, priority 2012, dated 2017)",
  "key": {"[1]": {"system": "HCT116 huLAMP1 clones", "assay": "In vitro ADCP with human macrophages, flow cytometry", "format": "cell-based", "description": "ADCP activity was evaluated using HCT116 huLAMP1 clones with different LAMP1 antigen densities as target cells and human macrophages as effector cells. HCT116 huLAMP1 clones were labeled by PKH67 fluorescent dye, macrophages were labeled by CD14-PC7 fluorescent dye.\nFrom isolated PBMC and according to Miltenyi monocytes cell isolation kit protocol (130-050-201, Miltenyi Biotech). Cells labeled by CD14-MicroBead were isolated using the positive selection program of the autoMACS Pro Separator (Milteny Biotech). Collected fraction (containing monocytes cells) were suspended in 13.6 mL of RPMI-1640 supplemented with 10% fetal bovine serum, washed once (centrifugation at 400 g for 10 min) and suspended at a final concentration of 10^6 cells/mL in 64 mL of RPMI-1640 supplemented with 10% fetal bovine serum, 1% of heat inactivated human serum (AB; #14-490E), 2 mM of L-glutamine and 50 ng/mL of GM-CSF (Miltenyi Biotech; #130-093-866).\nThe 64 mL of isolated monocytes were added to T75 flasks (NUNC; #I56472), 10 mL per flasks. Flasks were put in a 37° C. 5% CO2 incubator where cells were allowed to adhere for 8 days. […]\nSamples were analyzed using a MACSQUANT apparatus. Phagocytosis was determined as double-labeled cells (PKH67 positive and PC7 positive cells)."}, "[2]": {"biological_target": "T1, recombinant human LAMP1 (29-382 of SEQ ID NO: 28) (Homo sapiens, UniProt P11279)", "T1 construct": "made in house; host or cells: HEK293 (293-F), transient expression, IMAC-purified", "T1 sequence (P11279 with tags, fused parts or gaps)": "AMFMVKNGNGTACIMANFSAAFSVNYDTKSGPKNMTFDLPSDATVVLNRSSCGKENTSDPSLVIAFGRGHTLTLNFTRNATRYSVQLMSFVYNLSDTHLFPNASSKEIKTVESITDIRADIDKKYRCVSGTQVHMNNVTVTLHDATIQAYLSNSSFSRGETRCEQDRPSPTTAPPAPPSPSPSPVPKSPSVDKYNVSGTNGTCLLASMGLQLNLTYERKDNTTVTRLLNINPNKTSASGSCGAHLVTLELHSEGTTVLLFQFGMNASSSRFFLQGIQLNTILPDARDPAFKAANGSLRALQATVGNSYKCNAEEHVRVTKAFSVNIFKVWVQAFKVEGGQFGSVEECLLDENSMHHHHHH", "assay": "ELISA on recombinant human LAMP1", "format": "binding", "conditions": "chimer and humanized mAbs (Table 27)"}},
  "data": [
    {"molecule": "huMAb1_negA: negative control of huMAb1_1 with mutations VL1_36A-95A and VH1_101A (antibody, listed as Homo sapiens, Antibody fragment) heavy: QVQLVQSGAEVKKPGSSVKVSCKASGYIFTNYNIHWVKKSPGQGLEWIGAIYPGNGDAPYSQKFQGKATLTADTSTSTTYMELSSLRSEDTAVYYCVRANWDVAFAYWGQGTLVTVSS[not shown - human IgG1 constant region with D265A (EU numbers)] light: DIQMTQSPSSLSASVGDRVTITCKASQDIDRYMAWAQDKPGKAPRLLIHDTSTLQSGVPSRFSGSGSGRDYTLTISNLEPEDFATYYCLQYDNLATFGGGTKVEIKRTVAAPSVFIFPPSDEQLKSGTASVVCLLNNFYPREAKVQWKVDNALQSGNSQESVTEQDSKDSTYSLSSTLTLSKADYEKHKVYACEVTHQGLSSPVTKSFNRGEC", "values": [
      {"measurement": "in vitro ADCP", "setting": "[1]", "value": "did not induce any ADCP"},
      {"measurement": "EC50 (nM) hLAMP1", "setting": "[2]", "value": "No binding detected"}
    ]}
  ]
}
